The list shows a part of the results, in another mix than the full data. At the low end of the ranking, values are background and their order means little. This is one part of the list.

Assay [1] addresses AGO2 WT (phosphosite mutant background) S387D + S824A + S828D + S831D + S834A (UniProt Q9UKV8). The experiment in a line: RNA Bind-n-Seq (nitrocellulose filter binding and sequencing). The settings on record: constant regions annealed to DNA blockers; guide miR-122 5' phosphate; 30 mM Tris pH 8.0, 100 mM potassium acetate, 2 mM magnesium acetate, 0.5 mM TCEP, 0.005% NP-40, 0.01 mg/ml yeast tRNA; 3 nM AGO2-miR-122, 100 nM RNA library …; high values mean tight binding.

For assay [2], the target named is AGO2 F182del S387D + S824A + S828D + S831D + S834A + del182-182 (UniProt Q9UKV8). The description is as above. The settings on record: constant regions annealed to DNA blockers; guide miR-122 5' phosphate; 30 mM Tris pH 8.0, 100 mM potassium acetate, 2 mM magnesium acetate, 0.5 mM TCEP, 0.005% NP-40, 0.01 mg/ml yeast tRNA; 3 nM AGO2-miR-122, 100 nM RNA library …; high values mean tight binding.

In the case of “GAGUUCUACAGUCCGACGAUCCCAACGUGCUCCGCACCUGGAAUUCUCGGGUGCCAA / UGGAGUGUGACAAUGGUGUUUG / GATCGTCGGACTGTAGAACTC / TTGGCACCCGAGAATTCCA”, the binding signal (fold enrichment over input) turned out to be 0.149 in assay [1] and 0.426 in assay [2].
As to “GAGUUCUACAGUCCGACGAUCCCAACGUGCUUCGCACCUGGAAUUCUCGGGUGCCAA / UGGAGUGUGACAAUGGUGUUUG / GATCGTCGGACTGTAGAACTC / TTGGCACCCGAGAATTCCA”, the binding signal (fold enrichment over input) was found to be 0.127 in assay [1] and 0.066 in assay [2].
For “GAGUUCUACAGUCCGACGAUCCCAACAUACCCUACACCUGGAAUUCUCGGGUGCCAA / UGGAGUGUGACAAUGGUGUUUG / GATCGTCGGACTGTAGAACTC / TTGGCACCCGAGAATTCCA”, in that order: 0.0939 and 0.0571.
For “GAGUUCUACAGUCCGACGAUCCCAACACGCUCUGCACCUGGAAUUCUCGGGUGCCAA / UGGAGUGUGACAAUGGUGUUUG / GATCGTCGGACTGTAGAACTC / TTGGCACCCGAGAATTCCA”, in that order: 0.132 and 0.149.
For “GAGUUCUACAGUCCGACGAUCCCAACACACCUCGCACCUGGAAUUCUCGGGUGCCAA / UGGAGUGUGACAAUGGUGUUUG / GATCGTCGGACTGTAGAACTC / TTGGCACCCGAGAATTCCA” the same measures were 0.112 and 0.256.
On to “GAGUUCUACAGUCCGACGAUCCCAACACGUCCCGCACCUGGAAUUCUCGGGUGCCAA / UGGAGUGUGACAAUGGUGUUUG / GATCGTCGGACTGTAGAACTC / TTGGCACCCGAGAATTCCA”, for which the results for the binding signal (fold enrichment over input) in assay [1] and in assay [2] were 0.0874 and 0.0758, respectively.
For “GAGUUCUACAGUCCGACGAUCCCAACAUACUCUGCACCUGGAAUUCUCGGGUGCCAA / UGGAGUGUGACAAUGGUGUUUG / GATCGTCGGACTGTAGAACTC / TTGGCACCCGAGAATTCCA”, in that order: 0.102 and 0.0808.
For “GAGUUCUACAGUCCGACGAUCCCAACGUACCUCGCACCUGGAAUUCUCGGGUGCCAA / UGGAGUGUGACAAUGGUGUUUG / GATCGTCGGACTGTAGAACTC / TTGGCACCCGAGAATTCCA”, in that order: 0.0846 and 0.056.
In the case of “GAGUUCUACAGUCCGACGAUCCCAACGUACUCUACACCUGGAAUUCUCGGGUGCCAA / UGGAGUGUGACAAUGGUGUUUG / GATCGTCGGACTGTAGAACTC / TTGGCACCCGAGAATTCCA”, the binding signal (fold enrichment over input) is 0.106 in assay [1] and 0.115 in assay [2].
For “GAGUUCUACAGUCCGACGAUCCCAACACAUCUCACACCUGGAAUUCUCGGGUGCCAA / UGGAGUGUGACAAUGGUGUUUG / GATCGTCGGACTGTAGAACTC / TTGGCACCCGAGAATTCCA”, the binding signal (fold enrichment over input) in assay [1] is 0.206; in assay [2] it was 2.74.
Regarding “GAGUUCUACAGUCCGACGAUCCCAACGUGCUCUACACCUGGAAUUCUCGGGUGCCAA / UGGAGUGUGACAAUGGUGUUUG / GATCGTCGGACTGTAGAACTC / TTGGCACCCGAGAATTCCA”, the binding signal (fold enrichment over input) in assay [1] is 0.108; in assay [2], 0.0712.
For “GAGUUCUACAGUCCGACGAUCCCAACAUAUUUCACACCUGGAAUUCUCGGGUGCCAA / UGGAGUGUGACAAUGGUGUUUG / GATCGTCGGACTGTAGAACTC / TTGGCACCCGAGAATTCCA”, in that order: 0.141 and 1.09.
In the case of “GAGUUCUACAGUCCGACGAUCCCAACAUGUCUCACACCUGGAAUUCUCGGGUGCCAA / UGGAGUGUGACAAUGGUGUUUG / GATCGTCGGACTGTAGAACTC / TTGGCACCCGAGAATTCCA”, the binding signal (fold enrichment over input) in assay [1] amounted to 0.232; in assay [2], 1.79.
For “GAGUUCUACAGUCCGACGAUCCCAACGUGUUUCACACCUGGAAUUCUCGGGUGCCAA / UGGAGUGUGACAAUGGUGUUUG / GATCGTCGGACTGTAGAACTC / TTGGCACCCGAGAATTCCA”, in that order: 0.11 and 0.111.
For “GAGUUCUACAGUCCGACGAUCCCAACGCAUUUUGCACCUGGAAUUCUCGGGUGCCAA / UGGAGUGUGACAAUGGUGUUUG / GATCGTCGGACTGTAGAACTC / TTGGCACCCGAGAATTCCA” the same measures were 0.086 and 0.0358.
For the sequence “GAGUUCUACAGUCCGACGAUCCCAACGCAUUCUACACCUGGAAUUCUCGGGUGCCAA / UGGAGUGUGACAAUGGUGUUUG / GATCGTCGGACTGTAGAACTC / TTGGCACCCGAGAATTCCA”, the binding signal (fold enrichment over input) is 0.106 in assay [1] and 0.114 in assay [2].
On to “GAGUUCUACAGUCCGACGAUCCCAACAUGCCUUACACCUGGAAUUCUCGGGUGCCAA / UGGAGUGUGACAAUGGUGUUUG / GATCGTCGGACTGTAGAACTC / TTGGCACCCGAGAATTCCA”, for which the binding signal (fold enrichment over input) amounted to 0.105 in assay [1] and 0.076 in assay [2].
Regarding “GAGUUCUACAGUCCGACGAUCCCAACAUACCUCGCACCUGGAAUUCUCGGGUGCCAA / UGGAGUGUGACAAUGGUGUUUG / GATCGTCGGACTGTAGAACTC / TTGGCACCCGAGAATTCCA”, the binding signal (fold enrichment over input) was 0.0876 in assay [1] and 0.0641 in assay [2].
For “GAGUUCUACAGUCCGACGAUCCCAACGCAUCCCGCACCUGGAAUUCUCGGGUGCCAA / UGGAGUGUGACAAUGGUGUUUG / GATCGTCGGACTGTAGAACTC / TTGGCACCCGAGAATTCCA” the same measures were 0.094 and 0.0465.
For “GAGUUCUACAGUCCGACGAUCCCAACACGCCCCGCACCUGGAAUUCUCGGGUGCCAA / UGGAGUGUGACAAUGGUGUUUG / GATCGTCGGACTGTAGAACTC / TTGGCACCCGAGAATTCCA”, in that order: 0.106 and 0.0737.
Consider “GAGUUCUACAGUCCGACGAUCCCAACGUGUUCCGCACCUGGAAUUCUCGGGUGCCAA / UGGAGUGUGACAAUGGUGUUUG / GATCGTCGGACTGTAGAACTC / TTGGCACCCGAGAATTCCA”, for which the values for the binding signal (fold enrichment over input) in assay [1] and in assay [2] were 0.101 and 0.0438, respectively.
As to “GAGUUCUACAGUCCGACGAUCCCAACGUAUCCUACACCUGGAAUUCUCGGGUGCCAA / UGGAGUGUGACAAUGGUGUUUG / GATCGTCGGACTGTAGAACTC / TTGGCACCCGAGAATTCCA”, the binding signal (fold enrichment over input) in assay [1] came to 0.109; in assay [2] it was 0.121.
For “GAGUUCUACAGUCCGACGAUCCCAACAUAUCUCACACCUGGAAUUCUCGGGUGCCAA / UGGAGUGUGACAAUGGUGUUUG / GATCGTCGGACTGTAGAACTC / TTGGCACCCGAGAATTCCA”, in that order: 0.165 and 1.42.
For “GAGUUCUACAGUCCGACGAUCCCAACAUGUUUCGCACCUGGAAUUCUCGGGUGCCAA / UGGAGUGUGACAAUGGUGUUUG / GATCGTCGGACTGTAGAACTC / TTGGCACCCGAGAATTCCA”, in that order: 0.0865 and 0.0399.
For “GAGUUCUACAGUCCGACGAUCCCAACACGUCCUGCACCUGGAAUUCUCGGGUGCCAA / UGGAGUGUGACAAUGGUGUUUG / GATCGTCGGACTGTAGAACTC / TTGGCACCCGAGAATTCCA”, the figures for the binding signal (fold enrichment over input) in assay [1] and in assay [2] were 0.0973 and 0.0803, respectively.
Take “GAGUUCUACAGUCCGACGAUCCCAACGCGUUUUGCACCUGGAAUUCUCGGGUGCCAA / UGGAGUGUGACAAUGGUGUUUG / GATCGTCGGACTGTAGAACTC / TTGGCACCCGAGAATTCCA”: the binding signal (fold enrichment over input) was determined as 0.0947 in assay [1] and 0.032 in assay [2].
Turning to “GAGUUCUACAGUCCGACGAUCCCAACGUACUUUGCACCUGGAAUUCUCGGGUGCCAA / UGGAGUGUGACAAUGGUGUUUG / GATCGTCGGACTGTAGAACTC / TTGGCACCCGAGAATTCCA”, the binding signal (fold enrichment over input) was 0.0877 in assay [1] and 0.0379 in assay [2].
Consider “GAGUUCUACAGUCCGACGAUCCCAACGUGCCCUGCACCUGGAAUUCUCGGGUGCCAA / UGGAGUGUGACAAUGGUGUUUG / GATCGTCGGACTGTAGAACTC / TTGGCACCCGAGAATTCCA”, for which the binding signal (fold enrichment over input) is 0.104 in assay [1] and 0.0474 in assay [2].
For “GAGUUCUACAGUCCGACGAUCCCAACGUAUUCUACACCUGGAAUUCUCGGGUGCCAA / UGGAGUGUGACAAUGGUGUUUG / GATCGTCGGACTGTAGAACTC / TTGGCACCCGAGAATTCCA”, in that order: 0.115 and 0.0789.
For “GAGUUCUACAGUCCGACGAUCCCAACGUACCUUACACCUGGAAUUCUCGGGUGCCAA / UGGAGUGUGACAAUGGUGUUUG / GATCGTCGGACTGTAGAACTC / TTGGCACCCGAGAATTCCA”, in that order: 0.108 and 0.0874.
Turning to “GAGUUCUACAGUCCGACGAUCCCAACGUAUCCCGCACCUGGAAUUCUCGGGUGCCAA / UGGAGUGUGACAAUGGUGUUUG / GATCGTCGGACTGTAGAACTC / TTGGCACCCGAGAATTCCA”, the binding signal (fold enrichment over input) in assay [1] was determined as 0.083; in assay [2], 0.0503.
As for “GAGUUCUACAGUCCGACGAUCCCAACGUAUCCUGCACCUGGAAUUCUCGGGUGCCAA / UGGAGUGUGACAAUGGUGUUUG / GATCGTCGGACTGTAGAACTC / TTGGCACCCGAGAATTCCA”, the binding signal (fold enrichment over input) in assay [1] is 0.0891; in assay [2], 0.0452.
For “GAGUUCUACAGUCCGACGAUCCCAACAUGUCUUGCACCUGGAAUUCUCGGGUGCCAA / UGGAGUGUGACAAUGGUGUUUG / GATCGTCGGACTGTAGAACTC / TTGGCACCCGAGAATTCCA”, in that order: 0.0825 and 0.0421.
For “GAGUUCUACAGUCCGACGAUCCCAACACGUUCUGCACCUGGAAUUCUCGGGUGCCAA / UGGAGUGUGACAAUGGUGUUUG / GATCGTCGGACTGTAGAACTC / TTGGCACCCGAGAATTCCA” the same measures were 0.0882 and 0.0468.
For “GAGUUCUACAGUCCGACGAUCCCAACAUGUUUUACACCUGGAAUUCUCGGGUGCCAA / UGGAGUGUGACAAUGGUGUUUG / GATCGTCGGACTGTAGAACTC / TTGGCACCCGAGAATTCCA” the same measures were 0.12 and 0.21.
Regarding “GAGUUCUACAGUCCGACGAUCCCAACACAUUUCACACCUGGAAUUCUCGGGUGCCAA / UGGAGUGUGACAAUGGUGUUUG / GATCGTCGGACTGTAGAACTC / TTGGCACCCGAGAATTCCA”, the binding signal (fold enrichment over input) in assay [1] is 0.235; in assay [2], 4.77.
“GAGUUCUACAGUCCGACGAUCCCAACACACCCCGCACCUGGAAUUCUCGGGUGCCAA / UGGAGUGUGACAAUGGUGUUUG / GATCGTCGGACTGTAGAACTC / TTGGCACCCGAGAATTCCA”: the binding signal (fold enrichment over input) worked out at 0.152 in assay [1] and 0.82 in assay [2].
In the case of “GAGUUCUACAGUCCGACGAUCCCAACGCGCUUUACACCUGGAAUUCUCGGGUGCCAA / UGGAGUGUGACAAUGGUGUUUG / GATCGTCGGACTGTAGAACTC / TTGGCACCCGAGAATTCCA”, the binding signal (fold enrichment over input) came out at 0.117 in assay [1] and 0.0647 in assay [2].
On to “GAGUUCUACAGUCCGACGAUCCCAACGCGCCUUGCACCUGGAAUUCUCGGGUGCCAA / UGGAGUGUGACAAUGGUGUUUG / GATCGTCGGACTGTAGAACTC / TTGGCACCCGAGAATTCCA”, for which the binding signal (fold enrichment over input) worked out at 0.101 in assay [1] and 0.0436 in assay [2].

The values are drawn from article PMC12529666.
